Data on 45 compounds can be found in article PMC4336329 (PLoS ONE, 2015).

Each structure is given as a SMILES string. Screen size: about 310,000 compounds; about 14,000 (4.5%) showed an effect of 50% or more. The effect is printed as a negative number. This is one part of the list.
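Further: peak tail current of the secondary pulse compared with the same well before compound.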

Chain of human ether-à-go-go-related gene (hERG) potassium channel (Q12809 whole entry, looked up): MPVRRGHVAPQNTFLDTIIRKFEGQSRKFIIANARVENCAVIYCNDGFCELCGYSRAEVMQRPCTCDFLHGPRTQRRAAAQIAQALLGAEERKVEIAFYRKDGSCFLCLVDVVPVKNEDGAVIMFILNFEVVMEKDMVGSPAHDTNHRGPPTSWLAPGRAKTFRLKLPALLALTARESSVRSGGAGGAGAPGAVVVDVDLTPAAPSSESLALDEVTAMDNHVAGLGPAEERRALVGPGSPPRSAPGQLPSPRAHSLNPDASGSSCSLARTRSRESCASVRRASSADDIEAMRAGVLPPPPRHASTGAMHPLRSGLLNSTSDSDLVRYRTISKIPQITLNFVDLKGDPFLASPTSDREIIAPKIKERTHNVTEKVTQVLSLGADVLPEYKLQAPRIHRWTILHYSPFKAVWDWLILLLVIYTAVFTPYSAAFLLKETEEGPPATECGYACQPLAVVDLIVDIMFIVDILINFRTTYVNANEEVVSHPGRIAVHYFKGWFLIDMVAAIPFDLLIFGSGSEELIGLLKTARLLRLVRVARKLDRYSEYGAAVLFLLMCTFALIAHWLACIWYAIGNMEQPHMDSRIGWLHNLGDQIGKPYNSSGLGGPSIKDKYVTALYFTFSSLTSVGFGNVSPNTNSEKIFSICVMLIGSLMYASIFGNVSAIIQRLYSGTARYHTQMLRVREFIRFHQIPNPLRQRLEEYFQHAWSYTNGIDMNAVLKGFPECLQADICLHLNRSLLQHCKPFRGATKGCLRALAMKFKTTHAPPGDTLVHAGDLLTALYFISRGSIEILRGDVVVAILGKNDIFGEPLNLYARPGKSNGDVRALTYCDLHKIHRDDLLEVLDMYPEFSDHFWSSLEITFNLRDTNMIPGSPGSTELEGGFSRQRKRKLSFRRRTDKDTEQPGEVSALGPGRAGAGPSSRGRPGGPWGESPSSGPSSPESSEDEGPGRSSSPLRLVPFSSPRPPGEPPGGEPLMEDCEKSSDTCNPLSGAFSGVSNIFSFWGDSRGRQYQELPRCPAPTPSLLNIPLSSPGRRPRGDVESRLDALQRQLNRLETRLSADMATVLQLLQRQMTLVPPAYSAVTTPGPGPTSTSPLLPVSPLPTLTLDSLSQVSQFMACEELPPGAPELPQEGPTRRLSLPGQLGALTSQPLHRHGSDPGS

The assay has as its target human ether-à-go-go-related gene (hERG) potassium channel (human, UniProt Q12809). The assay can be described thus: primary screen, population patch clamp on CHO cells stably expressing hERG.
As for `CN(C)CCNC(=O)Cn1nc(-c2ccc(Cl)cc2)ccc1=O`, the “hERG current change (%, negative = inhibition) at 10uM” value was -18.2%.
For `O=C(COc1ccc(/C=N/NS(=O)(=O)c2ccccc2)cc1)NCCc1ccccc1` the value was 19.5%.
As to `Clc1cccc(CN2CCc3c([nH]c4ccccc34)C2)c1Cl`, the “hERG current change (%, negative = inhibition) at 10uM” value is -8.21%.
As for `CC(=O)Nc1ccc(NC(=O)c2ccccc2Sc2ccc([N+](=O)[O-])cc2Cl)cc1`, the figure is -4.4%.
For the compound `CCOc1ccc(CCNC(=O)CS(=O)(=O)Cc2nc(-c3cccc(OC)c3)oc2C)cc1`, the “hERG current change (%, negative = inhibition) at 10uM” value turned out to be 0.111%.
As for `CN1CCc2c(sc(NC(=O)c3ccc(C(=O)c4ccccc4)cc3)c2C(N)=O)C1.Cl`, the figure is 11.5%; as for `CN=C(Nc1cccc(OC)c1)SC1CC(=O)N(c2ccc(C(=O)O)cc2)C1=O` (stereo not drawn), 4.58%; as for `CSc1ccc(/C=C(\NC(=O)c2ccccc2)C(=O)NN)cc1`, 9.02%.
As for `O=C(Cn1ncc2ccccc21)N1CCC2(CC1)OCCO2`, the figure is 5.47%.
`Cc1ccc(CCNC(=O)c2nnn(-c3cccc(C)c3)c2N)cc1`: the “hERG current change (%, negative = inhibition) at 10uM” value amounted to 2.33%.
Take `CC1(C)C2CC=C(/C=N/NC(=O)c3ccccc3Br)C1C2` (stereo not drawn): the “hERG current change (%, negative = inhibition) at 10uM” value is reported as -2.58%.
As for `O=C(NCc1ccccc1)C1=C[C@@H](c2ccc(C(F)(F)F)cc2)C[C@@H](OCCCCO)O1`, the figure is -25.8%.
Turning to `COc1cccc(C(=O)COC(=O)c2cccs2)c1`, the “hERG current change (%, negative = inhibition) at 10uM” value was found to be 10.6%.
For `COc1ccc(C(=O)c2ccccc2Cl)cc1OC` the value was -10.6%; for `CSCCC(NC(=O)c1ccccc1)C(=O)NCCCn1nc(C)cc1C` (stereo not drawn), -2.56%; for `Cc1ccc(S(=O)(=O)NCc2ccc(C(=O)N3CCN(c4ccccc4)CC3)cc2)cc1`, -18.6%.
As for `Cc1noc(COc2ccccc2OCc2onc(C)c2Cl)c1Cl`, the figure is 7.29%; as for `Cc1ccccc1NC(=O)CCN1CCN(Cc2ccccc2)CC1`, -27.2%.
For `Cc1ccc(C)c(N2CCN(S(=O)(=O)c3c(C(=O)N4CCCCC4)c(C)n(C)c3C)CC2)c1` the value was -5.82%; for `CCOC(=O)NNc1ccccc1`, 6.88%.
For `O=C(NCCc1ccccc1)c1ccc(Cl)cc1[N+](=O)[O-]`, the “hERG current change (%, negative = inhibition) at 10uM” value is -0.169%.
For the compound `CCOC(=O)c1sc2nc3c(cc2c1N)COC(C)(CC)C3` (stereo not drawn), the “hERG current change (%, negative = inhibition) at 10uM” value was -3.67%.
As for `CCCN(C(=O)CSCC(=O)Nc1ccc(OC)cc1)c1c(N)n(Cc2ccccc2)c(=O)[nH]c1=O`, the figure is -8.78%; as for `Cc1cc(=O)n(CC(=O)O)c2ccccc12`, 6.64%.
For `O=C(Nc1nccs1)c1nc[nH]c1C(=O)N1CCc2ccccc2C1` the value was -12.8%; for `O=C(O)c1cccc(Nc2ncnc3sccc23)c1`, 24.2%; for `CC(C)Oc1ccc(C(=O)N(Cc2ccco2)C2CCS(=O)(=O)C2)cc1` (stereo not drawn), -6.56%.
As for `CC(C)Oc1cccc(C(=O)C2CCCN(C(=O)c3ccsc3)C2)c1` (stereo not drawn), the figure is -26.8%.
Turning to `COCCN(C(=O)COC(=O)c1ccccc1Nc1ccccc1)c1c(N)n(Cc2ccccc2)c(=O)[nH]c1=O`, the “hERG current change (%, negative = inhibition) at 10uM” value was -44.9%.
As for `O=C(CCN1CCN(c2ccccc2)CC1)N/N=C/c1ccccc1O`, the figure is -16%.
As for `Cc1ccc(-c2nc3ccc([N+](=O)[O-])cc3[nH]2)cc1`, the figure is -3.49%; as for `C=C(Br)Cn1c(CC(C)C)nc2ccccc21`, -2.46%; as for `CCOC(=O)N1CCN(C(=O)C2CC(c3cc(OC)ccc3OC)=NO2)CC1` (stereo not drawn), -1.52%.
For `COC(=O)C1=CN(Cc2ccc(F)cc2)C=C(C(=O)OC)C1c1cc(OC)c(OC)c(OC)c1` the value was -30.6%; for `CCOc1ccc(-n2c(N)c(-c3nc4ccccc4[nH]3)sc2=S)cc1`, 11.2%.
`CCOc1ccc(NC(=O)c2cn(-c3ccc(OCC)cc3)c(=O)c3cc(OC)c(OC)cc23)cc1`: the “hERG current change (%, negative = inhibition) at 10uM” value came to 2.57%.
For `Cc1cccc(C)c1NC(=S)N(CCN(C)C)C(C)c1cccnc1` (stereo not drawn) the value was -9.34%; for `COc1ccc(C(NC(N)=O)c2ccccc2)cc1` (stereo not drawn), 10.3%; for `Cc1oc(-c2ccccc2Cl)nc1CS(=O)CC(=O)NCc1ccco1` (stereo not drawn), -11.1%.
Turning to `CCNc1nc(NC(C)(C)C)nc(N(C#N)CC)n1`, the “hERG current change (%, negative = inhibition) at 10uM” value is listed as -30.9%.
As to `CCCc1cc(=O)[nH]c(SCC(=O)c2c(N)n(C)c(=O)n(C)c2=O)n1`, the “hERG current change (%, negative = inhibition) at 10uM” value was -2.36%.
As for `O=C(N/N=C/c1cccs1)c1ccc2ccccc2c1`, the figure is 5.37%; as for `CCNCCNc1ccc(Cl)cc1[N+](=O)[O-].Cl`, -20.3%.
For `NS(=O)(=O)c1ccc(NC(=O)CN2CCc3ccccc32)cc1` the value was 6.29%; for `Cl.c1ccc(Nc2nc(NCC3CCCO3)c3ccccc3n2)cc1` (stereo not drawn), -31.2%.
